The campaign covered roughly 310,000 compounds. About 11,000 (3.5%) were called active. The shares of active, inactive and inconclusive entries below differ from those in the screen. Calls follow the shape of the dose curve; as a rule, active = well fitted inhibition curve with a large enough effect; inconclusive = small, poorly fitted or top-dose-only effect, or effect the other way; inactive = flat fitted curve, though single readings scatter. No potency is given beside an inconclusive call; the fits are too rough.
experiment: VP16 counterscreen qHTS for inhibitors of ROR gamma transcriptional activity; conditions: Drosophila S2 Gal4-VP16 UAS-luciferase, luminescence, 20 h; activity, negative = inhibition: at 53.6 µM (top of the series);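 also: Gal4-VP16 expression switched on by copper sulfate through the metallothionein promoter; nearly all actives have a fitted effect of over 50% in size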
% is scaled to controls: 0 for no effect and ±100 for the full control effect; potency is read from the fitted curve at half-maximal effect; tags tell the direction and shape of the fitted curve.

| SMILES | Potency | activity, negative = inhibition |
| --- | --- | --- |
| Clc1ccc(-n2ncc3c(N4CCCCCC4)ncnc32)cc1 | active: 14.1 µM |  |
| CCc1ccc(-c2nnn(CCC#N)n2)cc1 | inconclusive [activator, partial curve] |  |
| COc1ccc(C(=O)CNc2cccc(F)c2)cc1 | inconclusive [activator, single point] |  |
| COc1ccc(Cl)cc1NC(=O)CCCC(=O)c1ccccc1 |  | inactive: 2.24% |
| CCOc1cc2c(cc1OCC)C(c1ccccc1OC)OC(=O)C2 (stereo unspecified) | inconclusive [activator, single point] |  |
| COc1cccc(/C=C2\SC(=O)N(CCC(=O)NNC(=O)c3cccc(Cl)c3)C2=O)c1 | inconclusive [inhibitor, partial curve] |  |
| O=C(Nc1nnc(C2CC2)s1)c1ccccn1 | active: 4.47 µM |  |
| CCCCN(CCCNC(=O)CN1C(=O)COc2ccccc21)c1ccccc1 | inconclusive [inhibitor, single point] |  |
| COc1cc(CN2CCN(CCCSc3cc(C(C)(C)C)c(O)c(C(C)(C)C)c3)CC2)cc(OC)c1OC | inconclusive [inhibitor, single point] |  |
| CCCCSC1=N/C(=C/c2ccsc2)C(=O)N1c1ccccc1 | inconclusive [inhibitor, single point] |  |
| Cc1cc(N2CCN(C)CC2)ccc1NC(=O)c1c2c(nc3ccccc13)CCN(Cc1ccccc1)C2 | active: 11.2 µM |  |
| CCCCCCN(C(=O)CCl)c1ccccc1 | inconclusive [inhibitor, single point] |  |
| CCc1nnc(NC(=O)CSc2nccn2-c2cccc(C)c2C)s1 | active: 17.8 µM |  |
| CCCCN1C(=O)C2Cc3c([nH]c4ccccc34)CN2C1=S (stereo unspecified) | inconclusive [inhibitor, single point] |  |
| COc1ccc(-c2cc(N)n(S(=O)(=O)c3ccc(F)cc3)n2)cc1OC | inconclusive [inhibitor, single point] |  |
| CCN1CCN(c2cc(C(C)(C)C)nc3c(-c4ccccc4)c(C)nn23)CC1 |  | inactive: -1.26% |
| N#Cc1ccc(C(=O)OCC(=O)N2CCCC2)cc1 |  | inactive: -0.94% |
| CC(c1cccs1)N(Cc1ccco1)C(=S)Nc1ccc(F)c(Cl)c1 (stereo unspecified) | inconclusive [inhibitor, single point] |  |
| Cc1ccc(OCc2n[nH]c(=S)n2-c2ccccc2)cc1C | inconclusive [inhibitor, partial curve] |  |
| COc1ccc(/C=C2\CCc3ccccc3C2=O)c(OC)c1OC | inconclusive [activator, single point] |  |
| O=C(Nc1nnc(C2=COCCO2)o1)c1ccc([N+](=O)[O-])cc1 | active: 0.891 µM |  |
| CC(C)c1nc(=S)n(-c2ccccc2)[nH]1 | inconclusive [inhibitor, single point] |  |
| FC(F)(F)c1cnc(Sc2nc3nccc(-c4ccc(Cl)cc4)n3n2)c(Cl)c1 | inconclusive [inhibitor, single point] |  |
| O=C(CSc1ccc(-c2cccc([N+](=O)[O-])c2)nn1)N1CCCCC1 |  | inactive: 22.9% |
| COc1cc(NC(=S)NC(C)(C)C)c(OC)cc1Cl | inconclusive [inhibitor, single point] |  |
| COc1ccc(/C=N/S(=O)(=O)c2ccc(C)cc2)cc1 |  | inactive: 1.57% |

| SMILES | Potency | activity, negative = inhibition |
| --- | --- | --- |
| Cc1nn(C)cc1C(=O)Nc1ccccc1Br |  | inactive: -0.656% |
| N#Cc1nc(-c2cccs2)oc1NCc1ccco1 | inconclusive [activator, single point] |  |
| COc1ccc(-c2c3c(nc4sc(C(=O)Nc5cc(C)on5)c(N)c24)CCC3)cc1 | inconclusive [inhibitor, single point] |  |
| O=C(CCCN1C(=O)/C(=C\c2cccs2)SC1=S)Nc1ccc(O)cc1 | inconclusive [inhibitor, full curve] |  |
| O=C1CCC(C(=O)N2CCN(c3ccccc3Cl)CC2)CN1CC1CCCCC1 (stereo unspecified) |  | inactive: 0.387% |
| C/C(=N\NC(=S)NC(C)C)c1ccco1 | active: 4.47 µM |  |
| CN1CCN(c2ncc3nc(-c4ccccc4)c(=O)n(CCC#N)c3n2)CC1 |  | inactive: 7.37% |
| CCC(=O)c1cc(-c2nc3ccccc3n2C)n(C)c1 | inconclusive [activator, single point] |  |
| CCCc1nnc(SCC(=O)Nc2nnc(CC)s2)n1CC1CCCO1 (stereo unspecified) |  | inactive: 2.36% |
| CN(c1ccccc1)c1nc(-n2ccnc2)nc(-n2ccnc2)n1 |  | inactive: -3.99% |
| CC(C)n1c(=O)[nH]c2cc(C(=O)Nc3ccccc3)ccc21 | inconclusive [inhibitor, single point] |  |
| O=C(Nc1cc(Cl)ccc1Oc1ccccc1)c1ccc(F)cc1 | inconclusive [inhibitor, single point] |  |
| Cc1cccc(-c2nc(=S)c3c(o2)CCCC3)c1 | inconclusive [inhibitor, single point] |  |
| CN(c1cccc(NC(=O)c2ccc(C(C)(C)C)cc2)c1)S(C)(=O)=O | inconclusive [inhibitor, single point] |  |
| COc1ccc(-c2nnc(Nc3nc4c(OC)cccc4s3)o2)cc1 | active: 12.6 µM |  |
| CC(=O)NC(=S)Nc1ccc(N2CCOCC2)c(S(=O)(=O)Nc2cc(Cl)ccc2Cl)c1 | inconclusive [inhibitor, single point] |  |
| CCOc1cc(/C=N/Nc2cc(C)nc3ccc(C)cc23)ccc1O |  | inactive: 3.8% |
| Cc1ccc(C(=O)NCCC(=O)N2CCCC2)cc1 |  | inactive: -23.3% |
| O=C(NC1=NCCS1)c1ccc(OCC2CCCO2)cc1 (stereo unspecified) | inconclusive [inhibitor, single point] |  |
| CC(=O)c1cccc(NC(=O)c2ccc(CN3CCc4ccccc4C3)cc2)c1 | inconclusive [inhibitor, partial curve, poor fit] |  |
| O=C(NC(=S)NC(CO)Cc1ccccc1)c1ccc(F)cc1 (stereo unspecified) | inconclusive [inhibitor, single point] |  |
| O=C(NCc1ccncc1)c1ccc(Oc2ccccc2)cc1 | inconclusive [inhibitor, single point] |  |
| CCn1c(C)nc2cc(NC(=O)Nc3cccc(C(C)=O)c3)ccc21 | active: 14.1 µM |  |
| COc1ccc(CCN2CC(O)=C(c3nc4ccccc4c(=O)[nH]3)C2=N)cc1OC | inconclusive [inhibitor, single point] |  |
| COc1cccc(/C=N/N=C(\N)c2nonc2N)c1O | active: 0.631 µM |  |
| Cc1ccc(-c2c[n+](CC(=O)OCc3ccccc3)c3n2CCC3)cc1 |  | inactive: -0.541% |

| SMILES | Potency | activity, negative = inhibition |
| --- | --- | --- |
| COc1ccc2c(c1)CCC/C2=N\NC(=O)c1ccoc1C | inconclusive [inhibitor, single point] |  |
| CCOc1ccc2nc(NC(=O)COC)sc2c1 | inconclusive [inhibitor, single point] |  |
| O=[N+]([O-])c1cccc(/C=N/n2c(COc3ccccc3)n[nH]c2=S)c1 | inconclusive [inhibitor, single point] |  |
| Fc1ccc(OCc2nc(-c3cccs3)no2)cc1 | inconclusive [activator, single point] |  |
| CCNC(=O)C(=O)NCC(c1ccc2c(c1)OCO2)N1CCOCC1 (stereo unspecified) | inconclusive [inhibitor, single point] |  |
| O=C1/C(=C/c2ccc(O)cc2)CCc2ccc([N+](=O)[O-])cc21 |  | inactive: 1.32% |
| CC(C)c1ccc(N2C(=O)CC(Sc3ncccn3)C2=O)cc1 (stereo unspecified) | inconclusive [inhibitor, single point] |  |
| O=C(NCCN1CCOCC1)c1cc(Cl)ccc1Cl |  | inactive: 1.24% |
| Cc1cc(-c2n[nH]c(=S)o2)c(C)n1-c1ccccc1 | inconclusive [inhibitor, single point] |  |
| O=C(Nc1ccn(Cc2ccccc2F)n1)c1ccc(COc2ccc(Br)cc2)cc1 | inconclusive [inhibitor, single point] |  |
| CS(=O)(=O)N(CC(=O)N/N=C/c1cc2c(cc1Br)OCO2)c1ccccc1Br |  | inactive: -13.6% |
| O=C(O)CCSc1ncnc2sc(-c3ccccc3)cc12 | active: 5.01 µM |  |
| O=C(c1ccco1)N1CCC(c2ccccc2)C1 (stereo unspecified) | inconclusive [activator, partial curve] |  |
| Cc1ccc(NS(=O)(=O)c2cc(Br)cnc2N)cc1C | inconclusive [inhibitor, single point] |  |
| Cc1cc(C(=O)NNC(=O)/C=C/c2ccc(F)cc2)c(C)o1 |  | inactive: -6.06% |
| CC(C)c1c(C(=O)N/N=C/c2ccncc2)nnn1-c1nonc1N |  | inactive: 1.85% |
| S=c1[nH]cc(-c2ccccc2)n1-c1ccccc1 | active: 3.98 µM |  |
| COc1ccc2c(c1)OC/C(=C/c1cccs1)C2=O | inconclusive [inhibitor, single point] |  |
| FC(F)(F)c1ccc(Oc2ccc3cc(Br)ccc3c2)nc1 | inconclusive [inhibitor, single point] |  |
| C=C(C)CNC(=S)NN=C1c2ccccc2-c2ccccc21 | inconclusive [inhibitor, single point] |  |
| CCCN1CCc2c(sc(NC(=O)c3ccc(S(=O)(=O)N4CCN(C(=O)OCC)CC4)cc3)c2C(N)=O)C1 | inconclusive [inhibitor, single point] |  |
| CC1CCN(c2ccc(NC(=O)c3ccc(Br)o3)cc2)CC1 |  | inactive: -4.01% |
| CCN=c1scc(-c2ccccc2)n1/N=C/c1ccccn1 | active: 7.94 µM |  |
| O=C(N/N=C/c1cccs1)c1ccc2ncccc2c1 | inconclusive [inhibitor, single point] |  |

From PubChem BioAssay AID2546 (National Center for Advancing Translational Sciences (NCATS), 2010)
